In paper PMC7430671:
Changes are numbered by the printed parent chain. No constants are given. Whether binding was seen depends on the method and setting. Some results given as binding are weak or reduced against the parent protein; the word gives no strength. Where a sequence is shown, tags or fusion partners need not be part of it. Values belong to the binder of their own block, whether it stands above or below them.

Amino acid sequences for entries named in this document (tags omitted).
UniProt P21513: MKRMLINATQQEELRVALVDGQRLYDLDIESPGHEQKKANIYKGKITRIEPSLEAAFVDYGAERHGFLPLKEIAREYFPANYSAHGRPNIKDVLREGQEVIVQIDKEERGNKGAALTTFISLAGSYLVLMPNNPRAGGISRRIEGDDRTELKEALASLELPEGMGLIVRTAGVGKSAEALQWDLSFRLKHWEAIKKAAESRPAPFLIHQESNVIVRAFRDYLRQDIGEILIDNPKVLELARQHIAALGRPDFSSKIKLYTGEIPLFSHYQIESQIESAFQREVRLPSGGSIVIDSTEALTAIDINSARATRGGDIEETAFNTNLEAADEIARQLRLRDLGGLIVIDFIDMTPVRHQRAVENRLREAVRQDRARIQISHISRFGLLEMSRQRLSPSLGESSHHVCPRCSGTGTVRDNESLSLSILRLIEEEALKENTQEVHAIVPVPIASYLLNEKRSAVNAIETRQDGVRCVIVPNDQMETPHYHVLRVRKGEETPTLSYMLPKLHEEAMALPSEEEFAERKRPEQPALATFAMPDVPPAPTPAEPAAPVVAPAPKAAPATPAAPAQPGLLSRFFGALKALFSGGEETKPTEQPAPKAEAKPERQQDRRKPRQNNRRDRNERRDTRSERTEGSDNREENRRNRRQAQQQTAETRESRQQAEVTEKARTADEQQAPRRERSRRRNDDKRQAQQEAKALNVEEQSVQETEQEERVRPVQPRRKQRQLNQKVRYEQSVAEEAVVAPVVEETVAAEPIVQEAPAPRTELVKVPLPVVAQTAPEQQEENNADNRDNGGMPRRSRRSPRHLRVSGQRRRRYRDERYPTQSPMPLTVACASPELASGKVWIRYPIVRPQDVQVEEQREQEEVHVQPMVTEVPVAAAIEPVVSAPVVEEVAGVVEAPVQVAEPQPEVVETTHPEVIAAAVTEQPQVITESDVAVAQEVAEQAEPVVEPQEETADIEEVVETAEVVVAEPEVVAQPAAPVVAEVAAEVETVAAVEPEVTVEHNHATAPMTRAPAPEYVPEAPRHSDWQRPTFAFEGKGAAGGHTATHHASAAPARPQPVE

Tests used:
[1] = molecular target: RapZ_(1–278), BACTH fusion (E. coli) (UniProt P0A894); test: two-hybrid; BACTH in E. coli BTH101, self-interaction: the same RapZ variant fused to T18 and to T25; β-galactosidase activity of cells grown to stationary phase at 28°C
[2] = molecular target: full-length RNase E (RneFL), BACTH fusion (E. coli) (UniProt P21513); test: two-hybrid; BACTH in E. coli BTH101: RapZ variant fused to T18, RNase E variant fused to T25; β-galactosidase activity of cells grown to stationary phase at 28°C
[3] = molecular target: full-length RNase E (RneFL), BACTH fusion (E. coli) (UniProt P21513); test: two-hybrid; BACTH in E. coli BTH101: RapZ variant fused to T25, RNase E (full length) fused to T18; β-galactosidase activity of cells grown to stationary phase at 28°C
[4] = molecular target: RapZ variant lacking 10 residues from the carboxyl terminus, BACTH fusion (E. coli) (UniProt P0A894); test: two-hybrid; BACTH in E. coli BTH101, self-interaction: the same RapZ variant fused to T18 and to T25; β-galactosidase activity of cells grown to stationary phase at 28°C
[5] = molecular target: RapZ variant lacking 10 residues from the amino terminus, BACTH fusion (E. coli) (UniProt P0A894); test: as above
[6] = molecular target: RapZ variant lacking 5 residues from the amino terminus, BACTH fusion (E. coli) (UniProt P0A894); test: as above
[7] = molecular target: RapZ_(1–277), BACTH fusion (E. coli) (UniProt P0A894); test: as above
[8] = molecular target: RapZ_(1–279), BACTH fusion (E. coli) (UniProt P0A894); test: as above
[9] = molecular target: RapZ_(1–279) with Thr278 substituted by glycine, BACTH fusion (E. coli) (UniProt P0A894); test: as above
[10] = molecular target: RapZ_(1–279) Leu279Gly, BACTH fusion (E. coli) (UniProt P0A894); test: as above

B1: RapZ_(1–278), BACTH fusion (domain or fragment, UniProt P0A894 1-278)
chain: MVLMIVSGRSGSGKSVALRALEDMGFYCVDNLPVVLLPDLARTLADREISAAVSIDVRNMPESPEIFEQAMSNLPDAFSPQLLFLDADRNTLIRRYSDTRRLHPLSSKNLSLESAIDKESDLLEPLRSRADLIVDTSEMSVHELAEMLRTRLLGKRERELTMVFESFGFKHGIPIDADYVFDVRFLPNPHWDPKLRPMTGLDKPVAAFLDRHTEVHNFIYQTRSYLELWLPMLETNNRSYLTVAIGCTGGKHRSVYIAEQLADYFRSRGKNVQSRHRT
binding [1]: binds

B2: RapZCTD, BACTH fusion (domain or fragment, UniProt P0A894 153-284)
chain: LGKRERELTMVFESFGFKHGIPIDADYVFDVRFLPNPHWDPKLRPMTGLDKPVAAFLDRHTEVHNFIYQTRSYLELWLPMLETNNRSYLTVAIGCTGGKHRSVYIAEQLADYFRSRGKNVQSRHRTLEKRKP
binding [2]: no binding
binding [3]: no binding

B3: RapZ variant lacking 10 residues from the carboxyl terminus, BACTH fusion (domain or fragment, UniProt P0A894 1-274)
chain: MVLMIVSGRSGSGKSVALRALEDMGFYCVDNLPVVLLPDLARTLADREISAAVSIDVRNMPESPEIFEQAMSNLPDAFSPQLLFLDADRNTLIRRYSDTRRLHPLSSKNLSLESAIDKESDLLEPLRSRADLIVDTSEMSVHELAEMLRTRLLGKRERELTMVFESFGFKHGIPIDADYVFDVRFLPNPHWDPKLRPMTGLDKPVAAFLDRHTEVHNFIYQTRSYLELWLPMLETNNRSYLTVAIGCTGGKHRSVYIAEQLADYFRSRGKNVQS
binding [4]: no binding
binding [2]: no binding

B4: RapZ variant lacking 10 residues from the amino terminus, BACTH fusion (domain or fragment, UniProt P0A894 11-284)
chain: GSGKSVALRALEDMGFYCVDNLPVVLLPDLARTLADREISAAVSIDVRNMPESPEIFEQAMSNLPDAFSPQLLFLDADRNTLIRRYSDTRRLHPLSSKNLSLESAIDKESDLLEPLRSRADLIVDTSEMSVHELAEMLRTRLLGKRERELTMVFESFGFKHGIPIDADYVFDVRFLPNPHWDPKLRPMTGLDKPVAAFLDRHTEVHNFIYQTRSYLELWLPMLETNNRSYLTVAIGCTGGKHRSVYIAEQLADYFRSRGKNVQSRHRTLEKRKP
binding [5]: no binding
binding [2]: no binding

B5: RapZ variant lacking 5 residues from the amino terminus, BACTH fusion (domain or fragment, UniProt P0A894 6-284)
chain: VSGRSGSGKSVALRALEDMGFYCVDNLPVVLLPDLARTLADREISAAVSIDVRNMPESPEIFEQAMSNLPDAFSPQLLFLDADRNTLIRRYSDTRRLHPLSSKNLSLESAIDKESDLLEPLRSRADLIVDTSEMSVHELAEMLRTRLLGKRERELTMVFESFGFKHGIPIDADYVFDVRFLPNPHWDPKLRPMTGLDKPVAAFLDRHTEVHNFIYQTRSYLELWLPMLETNNRSYLTVAIGCTGGKHRSVYIAEQLADYFRSRGKNVQSRHRTLEKRKP
binding [6]: no binding
binding [2]: no binding

B6: RapZ_(1–277), BACTH fusion (domain or fragment, UniProt P0A894 1-277)
chain: MVLMIVSGRSGSGKSVALRALEDMGFYCVDNLPVVLLPDLARTLADREISAAVSIDVRNMPESPEIFEQAMSNLPDAFSPQLLFLDADRNTLIRRYSDTRRLHPLSSKNLSLESAIDKESDLLEPLRSRADLIVDTSEMSVHELAEMLRTRLLGKRERELTMVFESFGFKHGIPIDADYVFDVRFLPNPHWDPKLRPMTGLDKPVAAFLDRHTEVHNFIYQTRSYLELWLPMLETNNRSYLTVAIGCTGGKHRSVYIAEQLADYFRSRGKNVQSRHR
binding [7]: binds
binding [2]: no binding

B7: RapZNTD, BACTH fusion (domain or fragment, UniProt P0A894 1-152)
chain: MVLMIVSGRSGSGKSVALRALEDMGFYCVDNLPVVLLPDLARTLADREISAAVSIDVRNMPESPEIFEQAMSNLPDAFSPQLLFLDADRNTLIRRYSDTRRLHPLSSKNLSLESAIDKESDLLEPLRSRADLIVDTSEMSVHELAEMLRTRL
binding [2]: no binding
binding [3]: no binding

Second part, the binder after the results:

binding [8]: binds
binding [2]: binds
B8: RapZ_(1–279), BACTH fusion (domain or fragment, UniProt P0A894 1-279)
chain: MVLMIVSGRSGSGKSVALRALEDMGFYCVDNLPVVLLPDLARTLADREISAAVSIDVRNMPESPEIFEQAMSNLPDAFSPQLLFLDADRNTLIRRYSDTRRLHPLSSKNLSLESAIDKESDLLEPLRSRADLIVDTSEMSVHELAEMLRTRLLGKRERELTMVFESFGFKHGIPIDADYVFDVRFLPNPHWDPKLRPMTGLDKPVAAFLDRHTEVHNFIYQTRSYLELWLPMLETNNRSYLTVAIGCTGGKHRSVYIAEQLADYFRSRGKNVQSRHRTL

binding [9]: binds
binding [2]: binds
B9: RapZ_(1–279) with Thr278 substituted by glycine, BACTH fusion (domain or fragment, UniProt P0A894 1-279)
chain: B8 chain with T278G

binding [10]: binds
binding [2]: no binding
B10: RapZ_(1–279) Leu279Gly, BACTH fusion (domain or fragment, UniProt P0A894 1-279)
chain: B8 chain with L279G
